PubChem BioAssay AID504333 (National Center for Advancing Translational Sciences (NCATS), 2011)
In all, about 360,000 compounds went through this assay and about 16,000 (4.4%) were called active. The shares of active, inactive and inconclusive entries below differ from those in the screen. Calls come from the whole dose curve; as a rule, active = well fitted inhibition curve with a large enough effect; inconclusive = small, poorly fitted or top-dose-only effect; inactive = no such curve, though single readings can be large or run the other way. Potencies of inconclusive entries are doubtful fits and often do not repeat.
% is set by controls: 0 for no effect and ±100 for the full control effect; potency is the fitted concentration of half-maximal effect; tags give direction and shape of the fitted curve.
Note: nearly all actives have a fitted effect of over 60% in size.

Each molecule was assayed against Bromodomain adjacent to zinc finger domain protein 2B (Homo sapiens) (UniProt Q9UIF8) (assay: qHTS Assay for Inhibitors of BAZ2B). Conditions: AlphaScreen BAZ2B-H3K14Ac peptide displacement; activity change, negative = inhibition: at 114 µM (top of the series).
Chain of UniProt Q9UIF8 (Q9UIF8 whole entry, looked up, the tested form may be a part): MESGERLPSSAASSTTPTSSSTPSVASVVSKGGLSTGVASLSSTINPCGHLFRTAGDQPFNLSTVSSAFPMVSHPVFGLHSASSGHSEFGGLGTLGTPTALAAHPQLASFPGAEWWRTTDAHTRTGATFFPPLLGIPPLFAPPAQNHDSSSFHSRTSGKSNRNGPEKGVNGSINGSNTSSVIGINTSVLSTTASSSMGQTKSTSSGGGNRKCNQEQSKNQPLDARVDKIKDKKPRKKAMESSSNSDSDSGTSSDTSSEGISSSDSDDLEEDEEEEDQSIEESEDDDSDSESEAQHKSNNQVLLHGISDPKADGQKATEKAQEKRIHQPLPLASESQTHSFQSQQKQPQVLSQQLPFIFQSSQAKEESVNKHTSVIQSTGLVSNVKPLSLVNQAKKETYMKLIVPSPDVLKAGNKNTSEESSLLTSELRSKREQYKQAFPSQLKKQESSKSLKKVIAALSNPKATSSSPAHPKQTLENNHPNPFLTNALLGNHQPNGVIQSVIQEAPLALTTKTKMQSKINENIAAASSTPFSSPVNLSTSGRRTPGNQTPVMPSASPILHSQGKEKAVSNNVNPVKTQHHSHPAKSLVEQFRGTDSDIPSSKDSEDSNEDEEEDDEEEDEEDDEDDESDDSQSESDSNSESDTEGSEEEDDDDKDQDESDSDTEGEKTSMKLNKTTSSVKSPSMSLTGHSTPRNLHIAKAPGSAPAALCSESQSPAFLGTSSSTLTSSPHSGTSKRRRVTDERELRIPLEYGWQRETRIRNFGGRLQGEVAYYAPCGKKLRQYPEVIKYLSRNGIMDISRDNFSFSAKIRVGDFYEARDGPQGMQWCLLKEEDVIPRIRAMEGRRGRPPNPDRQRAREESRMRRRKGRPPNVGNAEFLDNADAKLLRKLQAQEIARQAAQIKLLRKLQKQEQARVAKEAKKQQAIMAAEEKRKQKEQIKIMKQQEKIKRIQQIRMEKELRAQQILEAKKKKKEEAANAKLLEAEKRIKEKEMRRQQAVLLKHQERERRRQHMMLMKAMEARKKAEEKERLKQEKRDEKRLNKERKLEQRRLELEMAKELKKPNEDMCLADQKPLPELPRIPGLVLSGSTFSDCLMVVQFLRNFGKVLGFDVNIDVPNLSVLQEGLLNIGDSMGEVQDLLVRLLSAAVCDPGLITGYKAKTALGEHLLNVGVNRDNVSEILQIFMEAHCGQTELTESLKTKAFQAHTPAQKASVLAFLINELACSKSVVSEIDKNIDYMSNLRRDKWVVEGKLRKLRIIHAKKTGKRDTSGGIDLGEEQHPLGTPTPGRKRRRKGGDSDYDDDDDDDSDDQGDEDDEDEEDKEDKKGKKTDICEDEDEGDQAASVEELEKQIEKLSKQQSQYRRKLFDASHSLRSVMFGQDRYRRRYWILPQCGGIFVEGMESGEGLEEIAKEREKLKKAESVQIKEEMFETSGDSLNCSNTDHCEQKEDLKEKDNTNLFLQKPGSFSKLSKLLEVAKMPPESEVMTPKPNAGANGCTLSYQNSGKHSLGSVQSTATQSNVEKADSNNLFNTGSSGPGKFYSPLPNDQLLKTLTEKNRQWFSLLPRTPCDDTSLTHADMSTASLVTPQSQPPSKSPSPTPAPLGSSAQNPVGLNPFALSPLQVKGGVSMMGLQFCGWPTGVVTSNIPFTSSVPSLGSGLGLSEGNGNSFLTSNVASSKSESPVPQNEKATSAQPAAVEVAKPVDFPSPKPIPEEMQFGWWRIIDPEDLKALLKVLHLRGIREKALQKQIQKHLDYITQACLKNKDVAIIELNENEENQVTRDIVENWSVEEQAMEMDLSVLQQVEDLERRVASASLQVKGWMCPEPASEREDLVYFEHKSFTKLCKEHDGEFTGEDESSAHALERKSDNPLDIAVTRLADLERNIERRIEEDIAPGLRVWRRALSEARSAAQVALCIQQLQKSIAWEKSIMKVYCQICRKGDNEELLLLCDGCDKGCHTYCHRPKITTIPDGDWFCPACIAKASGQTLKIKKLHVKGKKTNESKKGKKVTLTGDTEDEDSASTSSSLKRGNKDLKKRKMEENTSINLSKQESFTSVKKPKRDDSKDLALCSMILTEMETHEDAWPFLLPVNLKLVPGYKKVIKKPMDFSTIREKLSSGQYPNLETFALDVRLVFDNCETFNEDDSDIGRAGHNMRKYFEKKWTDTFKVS
How it was run: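 Protein-peptide AlphaScreen: BAZ2B 50 nM, b-H3K14Ac 50 nM, 1x PBS pH 7.4 + 0.01% Tween-20. Preincubation 30 min RT; cpd 30 min RT (top 110 uM); beads 20 min RT, light-protected.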
With `O=C(Nc1cccc(C(F)(F)F)c1)NC1CCCCC1` the Potency was inconclusive: 28.2 µM [inhibitor, partial curve].
For `COc1ccccc1N1CCN(C(=O)CCn2cnc3onc(-c4ccc(F)cc4)c3c2=O)CC1`, the “activity change, negative = inhibition” value was inactive: -0.97% [at 57.1 µM].
For `CCc1nc2ccccc2[nH]1`, the “activity change, negative = inhibition” value was inactive: -4.32%.
`Cc1ccc2nc(/C(C#N)=C/c3ccc(-c4ccccc4C(=O)O)o3)[nH]c2c1` was tested, and the Potency was inconclusive: 89.1 µM [inhibitor, single point].
For `CN1C(=O)c2ccc(NC(=O)c3ccc(N4CCCCC4)c([N+](=O)[O-])c3)cc2C1=O`, the “activity change, negative = inhibition” value was inactive: -7.09%.
`COC(=O)c1c(NC(=O)c2ccc(Br)o2)sc(C)c1C` was tested, and the “activity change, negative = inhibition” value was inactive: 11.4%.
In the case of `O=C(/C=C\c1ccco1)Nc1nc(-c2ccccc2)cs1`, the Potency is reported as inconclusive: 39.8 µM [inhibitor, partial curve].
In the case of `COc1cc2oc(-c3ccc(O)cc3)cc(=O)c2c(O)c1OC`, the Potency is reported as inconclusive: 70.8 µM [inhibitor, single point].
With `CCN1c2ccccc2NC2N=C(OC)C(c3ccccc3)C21` (centres undefined) the Potency was active: 44.7 µM.
In the case of `COc1cc(Nc2nc(-c3ccccc3)c3cc(C)ccc3n2)cc(OC)c1OC`, the Potency is reported as inconclusive: 12.6 µM [inhibitor, partial curve].
With `Cc1cc(/C=C2\SC(=O)N(C)C2=O)c(C)n1-c1ccc(O)cc1` the Potency was active: 50.1 µM.
With `Cc1cc(C)n(C(C)CC(=O)Nc2ccc3c(c2)OCCO3)n1` (centres undefined) the Potency was inconclusive: 89.1 µM [inhibitor, single point].
For `COc1ccccc1C(=O)NNC(=S)Nc1ccccc1`, the “activity change, negative = inhibition” value was inactive: 5.42%.
`O=C(NNc1nc2ccccc2nc1C(F)(F)F)c1ccccc1` was tested, and the Potency was inconclusive: 44.7 µM [inhibitor, partial curve, poor fit].
With `Cc1ccc(C)c(-n2sc3ccc(F)cc3c2=O)c1` the Potency was active: 17.8 µM.
With `CC(C)(C)OC(=O)N1CCC[C@H]1C(=O)N/N=C/c1cccc2cccnc12` the Potency was inconclusive: 79.4 µM [inhibitor, single point].
In the case of `CCCCNC(=O)Nc1cc(C)on1`, the Potency is reported as inconclusive: 100 µM [inhibitor, single point].
In the case of `COc1ccc(N2CC(C(=O)NCc3cccnc3)CC2=O)cc1` (centres undefined), the Potency is reported as inconclusive: 89.1 µM [inhibitor, single point].
`O=C(NCc1ccc2c(c1)OCO2)c1ccc(CN2CCc3ccccc3C2)cc1` was tested, and the Potency was inconclusive: 44.7 µM [inhibitor, partial curve].
In the case of `COc1cccc(F)c1C(C[N+](=O)[O-])c1c(N)n(C)c(=O)n(C)c1=O` (centres undefined), the Potency is reported as inconclusive: 79.4 µM [inhibitor, single point].
In the case of `c1ccc(CNc2ccccn2)cc1`, the “activity change, negative = inhibition” value is reported as inactive: -3.47%.
In the case of `Cc1cccc(-c2c3c(=O)n(C)c(=O)n(C)c3cn2C(C)C)c1`, the Potency is reported as inconclusive: 89.1 µM [inhibitor, single point].
In the case of `CCOc1ccc(CCNC(=O)C2CCCN(c3nnc(C)c4c(C)n(-c5ccccc5)nc34)C2)cc1` (centres undefined), the “activity change, negative = inhibition” value is reported as inactive: -16.5%.
In the case of `Cc1nc(-c2ccc(-n3nncc3-c3ccco3)cc2)cs1`, the Potency is reported as inconclusive: 50.1 µM [inhibitor, partial curve].
With `COc1ccc(N2CCN(C(=O)c3cc(=O)c4cc(Cl)ccc4o3)CC2)cc1` the Potency was inconclusive: 70.8 µM [inhibitor, single point].
In the case of `O=C(CSc1ncc(-c2ccc(F)cc2)[nH]1)Nc1cccc(O)c1`, the Potency is reported as inconclusive: 70.8 µM [inhibitor, partial curve].
`O=C(O)CCCCCN1C(=O)/C(=C\c2cn(-c3ccccc3)nc2-c2cccs2)SC1=S` was tested, and the Potency was active: 12.6 µM.
In the case of `CC(C)N(Cc1ccccc1)C(=O)COC(=O)c1ccc2c(c1)OCCO2`, the Potency is reported as inconclusive: 10 µM [inhibitor, single point].
For `COc1ccccc1OCC(=O)Nc1ccc2c(c1)OCO2`, the Potency was active: 50.1 µM.
For `CCOC(=O)C1=C(c2ccccc2)N=c2s/c(=C\c3ccco3)c(=O)n2C1c1cccs1` (centres undefined), the Potency was active: 11.2 µM.
In the case of `CN1C[C@@H]2C(c3ccc(Cl)nc3)C3(c4ccccc4)CC2(C3)[C@H]1c1ccccc1` (some centres undefined), the Potency is reported as inconclusive: 70.8 µM [inhibitor, single point].
`Cc1ccc(S(=O)(=O)NNC(=O)c2ccc3ccccc3n2)cc1` was tested, and the Potency was inconclusive: 89.1 µM [inhibitor, single point].
With `Cc1cc2c(cc1S(=O)(=O)N(C)c1ccccc1)n(C)c(=O)n2C` the Potency was inconclusive: 89.1 µM [inhibitor, single point].
With `CC(C)(C)OC1NS(=O)(=O)OCC1NCOC(Cl)(Cl)Cl` (centres undefined) the Potency was active: 50.1 µM.
In the case of `Cc1ccc(Nc2cc(C(=O)NC3CCCC3)c3ccccc3n2)cc1C`, the “activity change, negative = inhibition” value is reported as inactive: 5.78%.
For `CC(=O)Nc1ccc(C(=O)NNS(=O)(=O)c2ccc(C)cc2)cc1`, the Potency was active: 50.1 µM.
In the case of `COc1cc(O)cc(O)c1C(=O)/C=C/c1ccccc1`, the Potency is reported as inconclusive: 70.8 µM [inhibitor, partial curve].
With `O=[N+]([O-])c1ccc(Cl)c(CN2CCCCCC2)c1` the Potency was active: 56.2 µM.
`O=C(NCc1cccnc1)c1ccc(NC(=O)c2ccc([N+](=O)[O-])cc2)cc1` was tested, and the Potency was inconclusive: 70.8 µM [inhibitor, single point].
With `Cc1ccc(-c2c(CN3CCN(c4cc(Cl)ccc4C)CC3)csc2C)cc1` the Potency was inconclusive: 89.1 µM [inhibitor, single point].
`Nc1nc2n(n1)C(c1ccco1)CC(c1ccc(Cl)cc1Cl)N2` (centres undefined) was tested, and the Potency was inconclusive: 70.8 µM [inhibitor, single point].
In the case of `CCn1c(C)cs/c1=N\C(=S)Nc1ccccc1C`, the Potency is reported as active: 39.8 µM.
`CCOc1cc(C2/C(=C(\O)c3cc(C)ccc3C)C(=O)C(=O)N2CCN(C)C)ccc1O` (centres undefined) was tested, and the “activity change, negative = inhibition” value was inactive: -9.52%.
`COc1cc(OC)c(C2SCCN2S(=O)(=O)c2ccc(F)cc2)cc1OC` (centres undefined) was tested, and the Potency was inconclusive: 35.5 µM [inhibitor, partial curve].
For `O=C(NC(=S)Nc1ccc(CN2CCOCC2)cc1)c1cccc([N+](=O)[O-])c1`, the Potency was inconclusive: 79.4 µM [inhibitor, single point].
With `Cc1c(Cl)cccc1NC(=O)CN1C(=O)c2ccccc2Sc2ncccc21` the “activity change, negative = inhibition” value was inactive: -21.5%.
In the case of `COc1cc(/C(C#N)=C/c2cccc3ccccc23)c([N+](=O)[O-])cc1OC`, the Potency is reported as inconclusive: 8.91 µM [inhibitor, full curve, poor fit].
With `COC(=O)C1CCN(Cc2cn(-c3ccccc3)nc2-c2ccc3c(c2)OCO3)CC1` the Potency was inconclusive: 79.4 µM [inhibitor, single point].
With `Cc1cccc(C)c1NC(=O)CNC(=O)c1cccnc1` the “activity change, negative = inhibition” value was inactive: -13.5%.
In the case of `CCOc1ccccc1CNS(=O)(=O)c1cnc[nH]1`, the “activity change, negative = inhibition” value is reported as inactive: -9.65%.
In the case of `COc1ccc(/C=C\c2nc(=O)c3ccccc3o2)cc1`, the “activity change, negative = inhibition” value is reported as inactive: -33.4%.
For `Cc1ccc(-c2nnn(CC(=O)N(Cc3ccco3)C(C(=O)NC(C)(C)C)c3cccs3)n2)o1` (centres undefined), the Potency was inconclusive: 50.1 µM [inhibitor, partial curve].
For `COc1ccc(OC)c(NC(=O)c2ccc(S(=O)(=O)N3CCN(C)CC3)cc2)c1`, the “activity change, negative = inhibition” value was inactive: -9.04%.
`CC1CC(C)CN(C(=S)Nc2ccc3nc4n(c(=O)c3c2)CCCCC4)C1` (centres undefined) was tested, and the Potency was inconclusive: 56.2 µM [inhibitor, partial curve, poor fit].
For `O=C(CSc1nnc(NC(=O)c2ccc(F)cc2)s1)NC1CCCC1`, the “activity change, negative = inhibition” value was inactive: 0.109%.
`CCN(CC)CCN(CC(=O)N(C1CCCCC1)C1CCCCC1)C(=O)c1cccnc1` was tested, and the Potency was inconclusive: 89.1 µM [inhibitor, single point].
`O=C(NCc1ccc(Cl)cc1)c1cc2ccccn2n1` was tested, and the “activity change, negative = inhibition” value was inactive: -3.14%.
For `C=CCC1C=CCC(CC=C)N1C(=O)c1ccccc1[N+](=O)[O-]` (centres undefined), the “activity change, negative = inhibition” value was inactive: -34%.
`CC(=O)c1cn(CCOc2ccc(F)cc2)c2ccccc12` was tested, and the “activity change, negative = inhibition” value was inactive: 3.64%.
With `Cc1[nH]n(-c2nc(-c3ccc(Cl)cc3)cs2)c(=O)c1N=Nc1ccc(O)cc1` the Potency was inconclusive: 17.8 µM [inhibitor, full curve].
`Cc1cccc(NC(=O)C2CCC(CNS(=O)(=O)c3ccc4c(c3)CCCC(=O)N4)CC2)c1C` (centres undefined) was tested, and the “activity change, negative = inhibition” value was inactive: -13.3%.
For `CCN1CCOC(=O)C1CC(=O)Nc1ccccc1C(F)(F)F` (centres undefined), the “activity change, negative = inhibition” value was inactive: -39.2%.
For `Cc1cccc(CCNC(=O)CN(C)S(=O)(=O)c2cnc[nH]2)c1`, the Potency was inconclusive: 100 µM [inhibitor, single point].
With `CCOc1ccc(OCCC(=O)OCC(=O)NNC(=O)c2ccccc2)cc1` the “activity change, negative = inhibition” value was inactive: -6.99%.
With `Cc1cc(N2CCCC2)ccc1/C=C1\NC(=S)N(C)C1=O` the Potency was inconclusive: 3.55 µM [inhibitor, full curve].
In the case of `CC(=O)Nc1ccc(NC2=C/C(=N/S(=O)(=O)c3cccs3)c3ccccc3C2=O)cc1`, the Potency is reported as active: 3.55 µM.
With `COc1ccc(OC)c(NC(=O)CN2C(=O)CC(c3ccco3)Sc3ccccc32)c1` (centres undefined) the Potency was inconclusive: 31.6 µM [inhibitor, full curve, poor fit].
For `CCOC(=O)c1ccc(N(C(=O)c2ccco2)C(C(=O)NC2CCCC2)c2ccncc2)cc1` (centres undefined), the Potency was inconclusive: 89.1 µM [inhibitor, single point].
In the case of `O=c1c(-c2ccccc2)coc2cc(O)ccc12`, the Potency is reported as inconclusive: 89.1 µM [inhibitor, single point].
With `COc1ccc(-n2c(C)cc(/C=C/c3nc(O)c([N+](=O)[O-])c(=O)[nH]3)c2C)cc1` the Potency was active: 50.1 µM.
For `CN(c1ccccc1)S(=O)(=O)c1cc(C(=O)NCCCn2ccnc2)ccc1Cl`, the Potency was inconclusive: 89.1 µM [inhibitor, single point].
For `CS(=O)(=O)N(Cc1ccccc1)c1ccc(C(=O)NCc2ccccc2)cc1`, the “activity change, negative = inhibition” value was inactive: 0.433%.
In the case of `CCOCCCNC(=O)c1cnc2sc(N3CCCCCC3)nn2c1=O`, the “activity change, negative = inhibition” value is reported as inactive: -11.7%.
`O=C(Nc1nc2ccsc2c(=O)s1)c1ccco1` was tested, and the Potency was inconclusive: 79.4 µM [inhibitor, partial curve].
